Reference: patent US8623416B2 (priority 2009, dated 2014)

Settings: hamster, in vivo, sc

## squalamine phosphate
  response of animals immediately following subcutaneous administration: identical to those observed following administration of the vehicle buffer
